Laboratory results reported in PubChem BioAssay AID2451 (National Center for Advancing Translational Sciences (NCATS), 2010).
Among all 290,000 compounds or so, about 2,100 (0.72%) were called active. This list was built around the results that the source calls inconclusive (neither active nor inactive); the mix of calls is not that of the screen. The call rests on the fitted dose curve; in most records, active means well fitted inhibition curve with a large enough effect; inconclusive means small, poorly fitted or top-dose-only effect, or effect the other way; inactive means flat fitted curve, though single readings scatter. A potency beside an inconclusive call is a rough fit, not a confirmed value.

Target: Fructose-bisphosphate aldolase (Giardia intestinalis (strain ATCC 50803 / WB clone C6)) (UniProt A8B2U2)
UniProt A8B2U2, sequence (A8B2U2 whole entry, looked up): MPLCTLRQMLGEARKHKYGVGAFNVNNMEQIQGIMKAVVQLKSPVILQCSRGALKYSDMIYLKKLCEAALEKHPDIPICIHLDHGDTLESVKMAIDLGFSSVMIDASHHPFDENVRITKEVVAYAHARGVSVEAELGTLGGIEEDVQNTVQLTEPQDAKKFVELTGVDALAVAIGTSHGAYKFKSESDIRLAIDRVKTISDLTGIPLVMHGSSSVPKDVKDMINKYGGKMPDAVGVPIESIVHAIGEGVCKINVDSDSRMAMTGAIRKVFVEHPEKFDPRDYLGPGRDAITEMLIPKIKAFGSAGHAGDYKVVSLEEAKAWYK
Assay: qHTS Assay for Inhibitors of Fructose-1,6-bisphosphate Aldolase from Giardia Lamblia; further: nearly all actives have a fitted effect of over 55% in size
Details: purified Giardia FBPA; activity, negative = inhibition: at 59.6 µM (top of the series) unless noted
Summary of the method: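 40 nM FBPA preincubated 10 min at RT with compound (up to 57.5 uM final), then substrate plus GAPDH/TPI/NAD/arsenate coupling and diaphorase/resazurin added. Fluorescence read after 20 min at RT, 525/598 nm.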
On the % scale 0 is the no-effect control and ±100 the full control effect; potency means the concentration at half of the fitted maximal effect; tags describe the fitted curve by direction and shape.

| Structure (SMILES) | Potency | activity, negative = inhibition |
| --- | --- | --- |
| COc1cc(-c2ccc(Nc3ccccc3C(=O)O)c(OC)c2)ccc1Nc1ccccc1C(=O)O | inconclusive: 35.4 µM [inhibitor, single point] |  |
| CNc1ccc(Br)cc(C(=O)/C=C/c2ccc(Cl)cc2Cl)c1=O | inconclusive: 17.7 µM [inhibitor, single point] |  |
| O=C1CCCC2=C1C(c1ccc(O)c(O)c1)c1c(ccc3ncccc13)N2 (stereo not drawn) | active: 6.29 µM |  |
| COCCCNCC(O)COc1ccccc1F (stereo not drawn) | inconclusive: 17.7 µM [inhibitor, partial curve] |  |
| Cc1ccc(S(C)=O)cc1-n1c(=O)n(Cc2ccccc2)c(=O)c2[nH]cnc21 (stereo not drawn) | inconclusive: 14.1 µM [inhibitor, partial curve] |  |
| CCN1C(=O)C(=O)N(CC(=O)Nc2ccccc2Oc2ccccc2)C1=O | inactive |  |
| COc1ccccc1N(Cc1ccccc1)S(=O)(=O)c1cc(C(=O)O)ccc1Cl | inconclusive: 17.7 µM [activator, partial curve] |  |
| COc1cc(CNC(C)c2ccccc2)cc(Br)c1OCc1ccccc1 (stereo not drawn) | inconclusive: 22.4 µM [inhibitor, single point] |  |
| O=C(CN1CCCCCC1)NN(Cc1ccccc1)c1ccccc1 | inconclusive: 17.7 µM [inhibitor, partial curve] |  |
| CCN1C(=O)[C@H]2[C@H]3[C@H](O)[C@H](O)C/C(=N/O[C@@H]4O[C@@H](COC(C)=O)[C@@H](OC(C)=O)[C@@H](OC(C)=O)[C@H]4OC(C)=O)[C@@H]3CC[C@@H]2C1=O |  | inactive: 2.97% [at 12.9 µM] |
| Cc1ccc(/C=C2/NC(=O)N(Cc3ccc(Br)cc3)C2=O)o1 | inconclusive: 22.3 µM [inhibitor, single point] |  |
| Cc1cc(C)c2ccc(/C=N/O)nc2c1O | inconclusive: 12.6 µM [inhibitor, partial curve] |  |
| COC(=O)[C@@H]1C2CC3c4[nH]c5cc(OC)ccc5c4CCN3CC2C[C@H](OC(=O)c2cc(OC)c(OC)c(OC)c2)C1OC (stereo partly drawn) | inconclusive: 11.2 µM [inhibitor, partial curve] |  |
| CN1C=C/C(=C\c2cc[n+](C)c3ccccc23)c2ccccc21 | inconclusive: 0.792 µM [inhibitor, full curve] |  |
| NNc1ccc(Cl)nn1 | active: 19.9 µM |  |
| CCc1nnc(N/N=C/c2c(C)[nH]c3ccccc23)n1N | active: 17.7 µM |  |
| C/C(CC(=O)Nc1ccc(Cl)cc1Cl)=N\NC(=O)c1cnccn1 | inactive |  |
| CCOC(=O)C1=C(C)NC(=O)NC1c1ccc(OCC(=O)Nc2ccccc2)c(OC)c1 (stereo not drawn) | inactive |  |
